According to the supplement of paper PMC12217912:
Some of the results follow. The full chains were built here from the parent and the listed change. Values near 0.05 are background.

B1: TEV protease; numbered along this chain (parent)
chain: MGESLFKGPRDYNPISSSICHLTNESDGHTTSLYGIGFGPFIITNKHLFRRNNGTLVVQSLHGVFKVKDTTTLQQHLVDGRDMIIIRMPKDFPPFPQKLKFREPQREERICLVTTNFQTKSMSSMVSDTSCTFPSGDGIFWKHWIQTKDGQCGSPLVSTRDGFIVGIHSASNFTNTNNYFTSVPKNFMELLTNQEAQQWVSGWRLNADSVLWGGHKVFMVKPEEPFQPVKEATQL

Variants of: B1
Experiment: raw area under fraction-flipped curve 0-4 h after induction (AUC4h, not background-subtracted), DNA-recorder readout of cleavage of the substrate (dimensionless); higher = more cleavage of the substrate by the protease variant
Conditions: temperature: 34 °C; time window: 0-4 h after rhamnose induction
Experimental: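 In vivo DNA recorder in E. coli TOP10(DE3) ΔrhaA at 34 °C. Each TEVp single-site mutant (parent TEVp 0) is paired with a single-site variant of the 7-mer TEVs (canonical ENLYFQ|S). The substrate sits between flexible linkers in a Bxb1-sfGFP-TEVs-SsrA fusion, so cleavage stabilises Bxb1 and speeds flipping of a recombination array, read by NGS. The value is the raw area under the fraction-flipped curve over 0-4 h after rhamnose induction (AUC4h), with ≥20 reads per time point. It is not background-subtracted; inactive controls average about 0.047.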
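Note: Bxb1 expression induced with 0.2% (w/v) L-rhamnose at OD600 near 0.5, cultures sampled hourly, flipped fraction per protease–substrate barcode pair counted by paired-end Illumina sequencing.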

Variant	area with substrate ENAYFQS	area with substrate ENCYFQS	area with substrate ENDYFQS	area with substrate ENFYFQS	area with substrate ENGYFQS	area with substrate ENNYFQS	area with substrate ENRYFQS	area with substrate ENEYFQS	area with substrate ENIYFQS	area with substrate ENKYFQS	area with substrate ENPYFQS	area with substrate ENQYFQS	area with substrate ENSYFQS	area with substrate ENTYFQS	area with substrate ENVYFQS	area with substrate ENHYFQS	area with substrate ENMYFQS	area with substrate ENWYFQS	area with substrate ENYYFQS
MGESLFKGPRDYNPISSSICHLTNESDGHTTSLYGIGFGPFIITNKHLFRRNNGTLVVQSLHGVFKVKDTTTLQQHLVDGRDMIIIRMPKDFPPFPQKLKFREPQREERICLVTTNFQTKSMSSMVSDTSCTFPSGDGIFWKHWIQTKDGQCGSPLVSTRDGFIVGIHSASNFTNTNNYFTSVPKNFMELLTNQEAQQWVSGWRLNADSVLWGGHKVFMTKPEEPFQPVKEATQL [V220T]	0.0592	0.0764	0.0412	0.0615	0.0453	0.0409	0.0726												
MGESLFKGPRDYNPISSSICHLTNESDGHTTSLYGIGFGPFIITNKHLFRRNNGTLVVQSLHGVFKVKDTTTLQQHLVDGRDMIIIRMPKDFPPFPQKLKFREPQREERICLVTTNFQTKSMSSMVSDTSCTFPSGDGIFWKHWIQTKDGQCGSPLVSTRDGFIVGIHSASNFTNTNNYFTSVPKNFMELLTNQEAQQWVSGWRLNADSVLWGGHKVFMYKPEEPFQPVKEATQL [V220Y]	0.0719	0.0518		0.0643	0.0738			0.062	0.105	0.0646	0.0786	0.0568	0.0552	0.0457	0.0768				
MGESLFKGPRDYNPISSSICHLTNESDGHTTSLYGIGFGPFIITNKHLFRRNNGTLVVQSLHGVFKVKDTTTLQQHLVDGRDMIIIRMPKDFPPFPQKLKFREPQREERICLVTTNFQTKSMSSMVSDTSCTFPSGDGIFWKHWIQTKDGQCGSPLVSTRDGFIVGIHSASNFTNTNNYFTSVPKNFMELLTNQEAQQWVSGWRLNADSVLWGGHKVFMVCPEEPFQPVKEATQL [K221C]	0.0602	0.0738	0.0601	0.079	0.0654		0.0566		0.093	0.0675	0.0603	0.0624	0.06	0.07	0.075	0.0657	0.0629		
MGESLFKGPRDYNPISSSICHLTNESDGHTTSLYGIGFGPFIITNKHLFRRNNGTLVVQSLHGVFKVKDTTTLQQHLVDGRDMIIIRMPKDFPPFPQKLKFREPQREERICLVTTNFQTKSMSSMVSDTSCTFPSGDGIFWKHWIQTKDGQCGSPLVSTRDGFIVGIHSASNFTNTNNYFTSVPKNFMELLTNQEAQQWVSGWRLNADSVLWGGHKVFMVHPEEPFQPVKEATQL [K221H]	0.0709	0.0704	0.0604	0.0501		0.0548		0.0657		0.0395	0.0605	0.0553	0.0586	0.0615	0.071	0.0576		0.0594	
MGESLFKGPRDYNPISSSICHLTNESDGHTTSLYGIGFGPFIITNKHLFRRNNGTLVVQSLHGVFKVKDTTTLQQHLVDGRDMIIIRMPKDFPPFPQKLKFREPQREERICLVTTNFQTKSMSSMVSDTSCTFPSGDGIFWKHWIQTKDGQCGSPLVSTRDGFIVGIHSASNFTNTNNYFTSVPKNFMELLTNQEAQQWVSGWRLNADSVLWGGHKVFMVMPEEPFQPVKEATQL [K221M]	0.059	0.0639	0.0528	0.052	0.0672	0.0697		0.068	0.0722		0.0416	0.0605		0.0536		0.0556	0.0434	0.0438	
MGESLFKGPRDYNPISSSICHLTNESDGHTTSLYGIGFGPFIITNKHLFRRNNGTLVVQSLHGVFKVKDTTTLQQHLVDGRDMIIIRMPKDFPPFPQKLKFREPQREERICLVTTNFQTKSMSSMVSDTSCTFPSGDGIFWKHWIQTKDGQCGSPLVSTRDGFIVGIHSASNFTNTNNYFTSVPKNFMELLTNQEAQQWVSGWRLNADSVLWGGHKVFMVKNEEPFQPVKEATQL [P222N]	0.0618		0.0588	0.05	0.063		0.0628	0.0594		0.0578	0.0652	0.0546	0.0571	0.0599	0.075		0.0928		0.0533
MGESLFKGPRDYNPISSSICHLTNESDGHTTSLYGIGFGPFIITNKHLFRRNNGTLVVQSLHGVFKVKDTTTLQQHLVDGRDMIIIRMPKDFPPFPQKLKFREPQREERICLVTTNFQTKSMSSMVSDTSCTFPSGDGIFWKHWIQTKDGQCGSPLVSTRDGFIVGIHSASNFTNTNNYFTSVPKNFMELLTNQEAQQWVSGWRLNADSVLWGGHKVFMVKREEPFQPVKEATQL [P222R]	0.0672		0.0601	0.0566			0.0666	0.0666			0.069	0.0679	0.0552	0.0558	0.0581	0.0753			
MGESLFKGPRDYNPISSSICHLTNESDGHTTSLYGIGFGPFIITNKHLFRRNNGTLVVQSLHGVFKVKDTTTLQQHLVDGRDMIIIRMPKDFPPFPQKLKFREPQREERICLVTTNFQTKSMSSMVSDTSCTFPSGDGIFWKHWIQTKDGQCGSPLVSTRDGFIVGIHSASNFTNTNNYFTSVPKNFMELLTNQEAQQWVSGWRLNADSVLWGGHKVFMVKPEEPSQPVKEATQL [F226S]	0.082		0.0599	0.065	0.0702		0.0601	0.0654			0.0624	0.0604	0.136	0.0322		0.0749	0.0955	0.069	0.0632
MGESLFKGPRDYNPISSSICHLTNESDGHTTSLYGIGFGPFIITNKHLFRRNNGTLVVQSLHGVFKVKDTTTLQQHLVDGRDMIIIRMPKDFPPFPQKLKFREPQREERICLVTTNFQTKSMSSMVSDTSCTFPSGDGIFWKHWIQTKDGQCGSPLVSTRDGFIVGIHSASNFTNTNNYFTSVPKNFMELLTNQEAQQWVSGWRLNADSVLWGGHKVFMVKPEEPFGPVKEATQL [Q227G]	0.0674	0.0579	0.0594			0.0376	0.067				0.0592	0.0565	0.0702		0.0881	0.0706			
